Test results reported in PubChem BioAssay AID493208 (National Center for Advancing Translational Sciences (NCATS), 2011).
Hit rate of the full screen: of about 44,000 compounds, about 340 (0.77%) were called active. Another 5% or so got no clear call; they are omitted. The call rests on the fitted dose curve; in most records, active means well fitted inhibition curve with a large enough effect; inconclusive means small, poorly fitted or top-dose-only effect; inactive means flat fitted curve, though single readings scatter. This is one part of the list.

Test: Acumen qHTS Assay for Inhibitors of the mTORC1 Signaling Pathway in MEF (Tsc2-/-, p53-/-) Cells: Sytravon;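 further: plate controls were DMSO for no effect and rapamycin for full effect; nearly all actives have a fitted effect of over 50% in size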
Settings: phospho-rpS6 immunofluorescence/PI, 24 h; series mostly up to 38.3 µM; activity change, negative = inhibition: at the top concentration
Outline: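 Plate MEFs (Tsc2-/-, p53-/-, empty vector) in DMEM/10% FBS; after 24 h add compound, incubate 24 h at 37 degree Celsius; fix in PFA/TX-100, block, stain phospho-rpS6 and 10 uM PI; scan at 488 nm; report % positive cells.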

Structure (SMILES) | activity change, negative = inhibition
CN(Cc1ccco1)S(=O)(=O)c1nnc(NC(=O)c2ccccc2Cl)s1 | inactive: -4.26%
CCC(=O)N1CCc2cc(S(=O)(=O)NC(C(=O)NCCc3cccc(C)c3)C(C)C)ccc21 (stereo not drawn) | inactive: -0.773%
O=C(NCc1cccs1)c1ccc(CSc2nc3ccncc3n2Cc2ccccc2F)cc1 | inactive: -1.38%
COc1ccc(C(=O)CCC(=O)Nc2ccc(C)c(Cl)c2)cc1 | inactive: 0.441%
COc1cc(Cl)c(C)cc1Nc1nc2ccccc2n2cnnc12 | inactive: -1.31%
COc1ccccc1CNC(=O)C1CCN(S(=O)(=O)c2cn(C)cn2)CC1 | inactive: 0%
O=C(NCCc1csc(-c2ccc(F)cc2)n1)c1cccc(F)c1 | inactive: -0.817%
Cc1ccc(C2c3[nH]c4ccccc4c3CCN2C(=O)CSCc2ccc(F)cc2)cc1 (stereo not drawn) | inactive: 4.93%
CCc1ccccc1N(C)C(=O)c1sc2nc3n(c(=O)c2c1C)CCCCC3 | inactive: -1.26%
O=C(Nc1ccccc1-c1nc2ccccc2s1)c1ccc(F)cc1 | inactive: 0.519%
Clc1ccc(-c2cc3ncc4c(n3n2)-c2ccccc2OC4)cc1 | inactive: 3.66%
COc1ccc(CCNc2nc3c(-c4cccc(C(F)(F)F)c4)nnn3c3ccccc23)cc1OC | inactive: -8.46%
Cc1ccc(CN2CCCn3nc(C(=O)NCc4ccc(N(C)C)cc4)cc3C2=O)cc1 | inactive: 22.8%
CC1CCN(c2nc(-c3ccc(C(C)(C)C)cc3)nc3ccccc23)CC1 | inactive: 4.06%
O=C(CSc1nc2ccsc2c(=O)n1-c1ccc(Cl)cc1)NCc1ccc(Cl)cc1 | inactive: -2.95%
CCOc1ccc(NC(=O)c2cc3cc(C)ccc3n2C)cc1 | inactive: 0.102%
CCC(=O)N1CCc2cc(S(=O)(=O)NCCC(=O)Nc3ccc(CC)cc3)ccc21 | inactive: 0.657%
COc1ccccc1NC(=O)CSc1oc(-c2ccco2)nc1S(=O)(=O)c1ccc(C)cc1 | inactive: -13.3%
CCOc1ccc(NC(=O)c2oc3ccccc3c2NC(=O)C(C)(C)C)cc1 | inactive: -5.77%
O=C(CC1N=C2c3ccccc3N=C(SCC(=O)Nc3ccc(F)cc3)N2C1=O)NCc1ccco1 (stereo not drawn) | inactive: 3.7%
CCOc1ccc2nc(N3CCCC(C(=O)Nc4ccc(OC)cc4)C3)sc2c1 (stereo not drawn) | inactive: -9.87%
COc1ccc(CCNC(=O)c2c(O)nc3ccccn3c2=O)cc1OC | inactive: 1.57%
COc1cc(Nc2ncc3c(n2)CCN(Cc2ccc(OC(C)C)c(OC)c2)C3)cc(OC)c1 | inactive: 0%
Cc1ccc(C(=O)Nc2nnc(S(=O)(=O)N(C)Cc3ccc(Cl)cc3)s2)cc1 | inactive: 0.287%
CCc1nn2c(=O)cc(COC(=O)c3ccc(NC(=O)COc4ccccc4C)cc3)nc2s1 | inactive: 0%
COc1ccc(NC(=O)c2csnn2)cc1Cl | inactive: -8.04%
O=C(c1noc2c1CCCCC2)N1CCN(c2cccc(Cl)c2)CC1 | inactive: 1.82%
O=C(Cn1ncc2c3ccccc3n(Cc3ccccc3F)c2c1=O)N1CCCCCC1 | inactive: -0.751%
